This note sets out measurements from PMC7819943, “Rice protein-binding microarrays: a tool to detect cis-acting elements near promoter regions in rice”.

This is one part of the list.

This experiment addresses T1, OsWOX13 (Oryza sativa, UniProt Q5QMM3 1-267).
T1 sequence: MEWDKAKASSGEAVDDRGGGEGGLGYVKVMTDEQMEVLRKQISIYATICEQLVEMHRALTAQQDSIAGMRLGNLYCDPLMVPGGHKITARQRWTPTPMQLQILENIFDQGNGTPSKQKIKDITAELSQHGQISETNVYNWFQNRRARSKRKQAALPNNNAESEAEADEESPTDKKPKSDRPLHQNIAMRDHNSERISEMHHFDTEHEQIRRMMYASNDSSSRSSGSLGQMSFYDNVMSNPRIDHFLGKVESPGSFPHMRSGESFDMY
The experiment can be described thus: protein-binding microarray (RPBM); PBS, 2% BSA, 51.3 ng/ul salmon testes DNA, 50 uM zinc acetate, 200 nM TF, 25 C, 1 h; high values mean tight binding. Particulars: protein: recombinant; tags: N-terminal polyhistidine and DsRed monomer fusion (pET32a); label: CyDye5-dUTP incorporated in the synthesized complementary strand; 3' TTTTT single-stranded linker to array surface; dsDNA, one strand shown. The gist of the method: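 Per-feature fluorescence intensity (arbitrary units), read on an Axon 4000B scanner, is the binding signal. Transcription factors carrying an N-terminal polyhistidine tag and DsRed fusion were expressed in E. coli BL21-CodonPlus and purified on Ni–NTA. A custom Agilent array, made double-stranded by primer extension with Cy5-dUTP and blocked with 2% BSA, was incubated with 200 nM protein in PBS, 2% BSA, salmon testes DNA and 50 µM zinc acetate at 25 °C for 1 h and then washed.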
Turning to “CGGTAGACATATTTGATGACATAATCCAAAGTAACTATATCGGAGTCACCTAGTGCAG”, the binding signal is 4020 fluorescence intensity (a.u.).
Next, “GTGACTGATGAACATGATGTTGGATGTATGGGATGGCACGCGGAGTCACCTAGTGCAG”: 14700 fluorescence intensity (a.u.); “TAGTAATTACTACTAATCTGGTTGCCTGCATACTTAGTGTCGGAGTCACCTAGTGCAG”: 30500 fluorescence intensity (a.u.).
For “CAACTATAAAATAATTGACTCGGTTATCTAAAGATGAATTCGGAGTCACCTAGTGCAG”, the binding signal was 11000 fluorescence intensity (a.u.).
Take “ATATAATGCTAACAAGAAATCACAGTATAATTTGGGGACGCGGAGTCACCTAGTGCAG”: the binding signal was 4220 fluorescence intensity (a.u.).
In the case of “AAAGAGAACACATAATTGATTTGGAGCACCCAAATAATTTCGGAGTCACCTAGTGCAG”, the binding signal is 15200 fluorescence intensity (a.u.).
On to “GTGCTAGTTGATTAATTAGGTCAAGCGTAGTTTATTTCATCGGAGTCACCTAGTGCAG”, for which the binding signal was 16300 fluorescence intensity (a.u.).
For the sequence “TTATATTGATGTTAATGAAACATATATATATCTATATAGACGGAGTCACCTAGTGCAG”, the binding signal was 7980 fluorescence intensity (a.u.).
“CTAATATGTTGATCGGTTCTTAGATTGAAAAGGTGGTTCGCGGAGTCACCTAGTGCAG”: the binding signal was 8580 fluorescence intensity (a.u.).
For “CCTCTCATTTACGAATAGAATGATTATTGTGCCCTTCTGCCGGAGTCACCTAGTGCAG”, the binding signal was 4190 fluorescence intensity (a.u.).
For the sequence “AGTAGAATTACAATTTATAAATGAAAGAAATATCACAATACGGAGTCACCTAGTGCAG”, the binding signal was 3370 fluorescence intensity (a.u.).
Then “ATATTTAAATTATTACTAGATAGCTATGAATGAAAGATTACGGAGTCACCTAGTGCAG”, with 7030 fluorescence intensity (a.u.); and “TGAATTAGCTATTAGATTAGATATAGATGAATTGTTGATACGGAGTCACCTAGTGCAG”, with 4360 fluorescence intensity (a.u.); and “GAGGGAGTAATTGCTAGTGGATGATGATGTGACATGCTTGCGGAGTCACCTAGTGCAG”, with 8640 fluorescence intensity (a.u.).
With “GTCGTCTAAGTCAAATAATTGATGCCATAAAGCGGATGTTCGGAGTCACCTAGTGCAG”, the binding signal was 6170 fluorescence intensity (a.u.).
Consider “TATATATATATATATATATTCACAAAATGTATCGTTTAACCGGAGTCACCTAGTGCAG”, for which the binding signal was 6980 fluorescence intensity (a.u.).
Then “TTGTGAGTAATTGCTCTTGTGCTAAGAGAATAGACTTTATCGGAGTCACCTAGTGCAG”, with 3850 fluorescence intensity (a.u.); and “AATTTTAATTTGGAGTGATAATAAGGTAAAGTTTAACGGGCGGAGTCACCTAGTGCAG”, with 15000 fluorescence intensity (a.u.); and “TTTGGTGTGATTAGATAATAATAATAATAATAATAATAGACGGAGTCACCTAGTGCAG”, with 12700 fluorescence intensity (a.u.).
Then “TCGGTATCATGTCACAATAATTAGCAACTAGAGAAAGAACCGGAGTCACCTAGTGCAG”, with 4080 fluorescence intensity (a.u.); and “ACATCCAATCAAGCAAAGCAGATGTGCAAAGCATCCGTGTCGGAGTCACCTAGTGCAG”, with 24600 fluorescence intensity (a.u.); and “AAAAGATTGAAACCACATACAAATAAATGGTTGTGTGAAACGGAGTCACCTAGTGCAG”, with 13800 fluorescence intensity (a.u.).
Consider “GGGCTATTTAATTACGATCCATCTGAAACAAACATGTGTACGGAGTCACCTAGTGCAG”, for which the binding signal is 11600 fluorescence intensity (a.u.).
On to “ATCTCTTAACTGCAACAACGGATTTGCAGGCGCGCATTGACGGAGTCACCTAGTGCAG”, for which the binding signal was 3580 fluorescence intensity (a.u.).
Then “AAACGTGTTGCATTTGTGATTGGAGAGAGTACTGAATCACCGGAGTCACCTAGTGCAG”, with 10200 fluorescence intensity (a.u.); and “TGTGTTAACTATGTTAATATTAAAATATAATGGTCTAGTCCGGAGTCACCTAGTGCAG”, with 3530 fluorescence intensity (a.u.); and “TATCCAATTAGAGTTCACCAAGGAATGAGACAGAGAGATCCGGAGTCACCTAGTGCAG”, with 3330 fluorescence intensity (a.u.).
For “CTCTTTCAAATTGACTGAATTTAAGTGAAATCACAATAATCGGAGTCACCTAGTGCAG”, the binding signal was 17400 fluorescence intensity (a.u.).
For the sequence “ATATATGATTTTGTTTGGGTGCTAGCCGCGCAATTGCACGCGGAGTCACCTAGTGCAG”, the binding signal was 3810 fluorescence intensity (a.u.).
As to “GAAGATTATTAGTAGTTTATAAAATCTCCCTTCGCTCACCCGGAGTCACCTAGTGCAG”, the binding signal is 6340 fluorescence intensity (a.u.).
Then “CACAAATTACGCTGCTTACATCGTGTTCGTGGTAGTTGACCGGAGTCACCTAGTGCAG”, with 14200 fluorescence intensity (a.u.); and “TATAATATTCATCAATTAGGATTCAAGTTCAGTTGCACTTCGGAGTCACCTAGTGCAG”, with 4180 fluorescence intensity (a.u.).
Turning to “AAATAATTTATTATTATATTTTATAACGGAGTAAGTAGTGCGGAGTCACCTAGTGCAG”, the binding signal was 45300 fluorescence intensity (a.u.).
Turning to “TTCTAATTTCAATCAAACTTTCAATTTTGGCGTGAACTAACGGAGTCACCTAGTGCAG”, the binding signal is 38700 fluorescence intensity (a.u.).
Then “GCCTTGATTAATCCCGTGCTCCGGCGAGCTAATTAACCCTCGGAGTCACCTAGTGCAG”, with 33600 fluorescence intensity (a.u.).
On to “TGACTGATAGGAGTTAGGACTTTATCCAATTTGGTATGTTCGGAGTCACCTAGTGCAG”, for which the binding signal is 8830 fluorescence intensity (a.u.).
Then “ATTATTATTTATTTTATTATGATTTGATTCGTCATCAAATCGGAGTCACCTAGTGCAG”, with 5780 fluorescence intensity (a.u.); and “TACAAATATTCAGACCGCTATGATTGGTGAATTTGTGGATCGGAGTCACCTAGTGCAG”, with 5190 fluorescence intensity (a.u.).
Then “CTAATTAAATAATTAAGGACTGACCAGGTTACTGTTAAATCGGAGTCACCTAGTGCAG”, with 32200 fluorescence intensity (a.u.); and “ATTTAATGAAACTAATTTTATTTTGTAGATGTTGCTAATTCGGAGTCACCTAGTGCAG”, with 7910 fluorescence intensity (a.u.); and “CCAGATGCTGATAGGCTGAGATTAGCTGCTAAGTAAAAGCCGGAGTCACCTAGTGCAG”, with 7280 fluorescence intensity (a.u.).
Regarding “GACAAATTTGTACAGTACTAACGGTGGCTAACCGGACGGTCGGAGTCACCTAGTGCAG”, the binding signal is 10400 fluorescence intensity (a.u.).
